{"source": "PubChem BioAssay AID686979", "about": "(National Center for Advancing Translational Sciences (NCATS), 2013)", "note": "Screen size: about 420,000 compounds; about 50,000 (12%) were called active. The inconclusive results got no clear call from the source; some entries with a clear call stand among them for comparison. The call rests on the fitted dose curve; in most records, active means well fitted inhibition curve with a large enough effect; inconclusive means small, poorly fitted or top-dose-only effect; inactive means flat fitted curve, though single readings scatter. Potencies of inconclusive entries are left out as doubtful fits. On the % scale 0 is the no-effect control and ±100 the full control effect; potency means the concentration at half of the fitted maximal effect; tags describe the fitted curve by direction and shape.", "data": [{"assay": "qHTS for Inhibitors of human tyrosyl-DNA phosphodiesterase 1 (TDP1): qHTS in cells in presence of CPT; further: nearly all actives have a fitted effect of over 55% in size", "conditions": "chicken DT40 Tdp1-/-;hTDP1 cells + 20 nM CPT, ATP luminescence, 48 h; activity change, negative = growth inhibition: at 46.2 µM (top of the series) unless noted", "how_it_was_run": "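Chicken DT40 Tdp1-/- cells stably complemented with human TDP1 were seeded at 400 cells/well in medium containing 20 nM camptothecin, exposed to pin-transferred compounds, and grown at 37 °C for at least 48 hr. Viability was read as ATP luminescence.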", "values": [{"smiles": "COc1ccc(CNS(=O)(=O)c2ccc(C(=O)N(C)C)s2)cc1", "Potency": "inconclusive [inhibitor, partial curve, poor fit]"}, {"smiles": "O=C(N/N=C/c1ccc(Br)s1)Nc1ccccc1", "Potency": "inconclusive [inhibitor, single point]"}, {"smiles": "CSc1ccc(CN2CCN(C(=O)c3ccc([N+](=O)[O-])cc3)CC2)cc1", "Potency": "inconclusive [inhibitor, single point]"}, {"smiles": "COc1ccccc1N(CC(=O)N/N=C(\\C)c1ccc(F)cc1)S(=O)(=O)c1ccccc1", "Potency": "inactive"}, {"smiles": "CC1CCCCC12NC(=O)N(CC(=O)Nc1ccc(N3CCOCC3)cc1)C2=O", "note": "(configuration not stated)", "Potency": "inactive"}, {"smiles": "CC(C)CC(C(=O)OCC(=O)N1CCN(c2ccccc2)CC1)N1C(=O)c2ccccc2C1=O", "note": "(configuration not stated)", "Potency": "inconclusive [inhibitor, single point]"}, {"smiles": "CCOC(=O)c1scc(-c2ccccc2)c1S(=O)(=O)Nc1ccccc1OC", "Potency": "active: 18.4 µM"}, {"smiles": "COc1ccccc1N1CCN(c2nc3c(S(=O)(=O)c4ccccc4)nnn3c3ccc(Cl)cc23)CC1", "Potency": "inactive"}, {"smiles": "Nc1ncnc2c1ncn2[C@@H]1O[C@H](C(=O)N2CCCN(Cc3cccs3)CC2)[C@@H](O)[C@H]1O", "Potency": "inactive"}, {"smiles": "O=C(Nc1cc2c(cc1Br)OCCO2)c1cccs1", "Potency": "inactive"}, {"smiles": "CCCc1nnc(NC(=O)OCC)s1", "Potency": "inactive"}, {"smiles": "O=C(CNS(=O)(=O)c1ccc(Cl)c(C(F)(F)F)c1)NC1CCCCCC1", "Potency": "inactive"}, {"smiles": "CC1=NN(c2ccccc2)C(=O)C1=Cc1ccccc1", "Potency": "inactive"}, {"smiles": "N#Cc1nc(-c2ccc(COc3ccc(Cl)cc3)o2)oc1N1CCCCC1", "Potency": "inconclusive [inhibitor, single point]"}, {"smiles": "COC(=O)/C=C1\\S/C(=N/NC(=O)c2ccccc2)NC1=O", "Potency": "inactive"}, {"smiles": "CC(NC(=O)CSc1n[nH]c(=O)n1C1CC1)C12CC3CC(CC(C3)C1)C2", "note": "(configuration not stated)", "Potency": "inconclusive [inhibitor, partial curve]"}, {"smiles": "NS(=O)(=O)c1ccc(Cc2ncc(C(F)(F)F)cc2Cl)s1", "Potency": "inconclusive [inhibitor, single point]"}, {"smiles": "C[C@@H]1CNCCN1S(=O)(=O)c1cccc2cnccc12", "Potency": "inconclusive [inhibitor, single point]"}, {"smiles": "Brc1ccc(-c2csc3ncnc(-n4nnc5ccccc54)c23)cc1", "Potency": "inconclusive [inhibitor, single point]"}, {"smiles": "COc1ccc2nc(NC(=O)c3ccc4ncsc4c3)sc2c1", "Potency": "inconclusive [inhibitor, partial curve]"}, {"smiles": "CCc1cccc(C)c1Nc1c(-c2ccc(F)cc2)nc2sccn12", "Potency": "inconclusive [inhibitor, single point]"}, {"smiles": "Cc1ccc(S(=O)(=O)CC(=O)N(C)C)cc1", "Potency": "inactive"}, {"smiles": "COc1ccc(Cn2c(SCc3ccc(C(=O)NC4CCCCC4)cc3)nc3ccncc32)cc1", "Potency": "inconclusive [inhibitor, single point]"}, {"smiles": "C[C@]12C=CC(=O)C=C1CCC1C2CC[C@@]2(C)C1CCC21OCCO1", "note": "(some centres not stated)", "Potency": "inconclusive [inhibitor, single point]"}, {"smiles": "COc1ccc(NC(=O)C23CC4CC(C2)CC(n2cnc(Br)n2)(C4)C3)cc1Cl", "Potency": "inconclusive [inhibitor, single point]"}, {"smiles": "CCCCN(C)CCC(=O)Nc1ccc2c(c1)CCC2", "Potency": "inconclusive [inhibitor, single point]"}, {"smiles": "CC(=O)c1ccc(NC(=O)CSc2ccc(-c3ccc4c(c3)OCO4)nn2)cc1", "Potency": "inconclusive [inhibitor, partial curve]"}, {"smiles": "COc1ccc(-c2cc(C(=O)N/N=C/c3cccnc3)c3cc(C)cc(C)c3n2)cc1", "Potency": "active: 18.4 µM"}, {"smiles": "O=C1c2[nH]nc(-c3ccccc3O)c2C(c2cccc(OCc3ccccc3)c2)N1CCCO", "note": "(configuration not stated)", "Potency": "inconclusive [inhibitor, single point]"}, {"smiles": "Fc1ccc(N2CCN(Cc3nnc(-c4ccccc4Cl)o3)CC2)cc1", "Potency": "inactive"}, {"smiles": "Cc1ccc(S(=O)(=O)N2[C@H](CC(=O)c3ccccc3)OC[C@@H]2C)cc1", "Potency": "inconclusive [inhibitor, single point]"}, {"smiles": "CC(=O)/C(CN1CCCCC1)=N\\O", "Potency": "inactive"}, {"smiles": "Nc1[nH]c(C(=O)c2ccccc2)c(-c2ccc(Cl)cc2Cl)c1C(=O)NCCc1c[nH]c2ccccc12", "Potency": "inconclusive [inhibitor, single point]"}, {"smiles": "CCOC(=O)N1CCN(C(=O)c2cccc(S(=O)(=O)Nc3ccc(OC)cc3)c2)CC1", "Potency": "inconclusive [inhibitor, partial curve, poor fit]"}, {"smiles": "O=C(NCCCN1CCOCC1)c1ccccc1NS(=O)(=O)c1ccc(F)cc1", "Potency": "inactive"}, {"smiles": "COc1ccc(C(=O)OCC(=O)NC(=O)NC2CCCC2)cc1OC", "Potency": "inconclusive [inhibitor, single point]"}, {"smiles": "O=C(Nc1ccccc1-c1nnc(SCc2ccc(Cl)cc2)o1)c1ccccc1", "Potency": "inconclusive [inhibitor, single point]"}, {"smiles": "COc1ccc(/C=C2/SC(=O)N(NS(=O)(=O)c3ccccc3)C2=S)cc1OC", "Potency": "inactive"}, {"smiles": "Cc1ccc2c(=O)c(C(=O)c3ccccc3)cn(CC(=O)NCc3ccccc3)c2n1", "Potency": "inconclusive [inhibitor, partial curve]"}, {"smiles": "CCc1cccc(C)c1NC(=O)C1CC(=O)N(C2CCCC2)C1", "note": "(configuration not stated)", "Potency": "inactive"}, {"smiles": "OC(C1=C/C(=C\\c2ccncc2)c2ccccc21)c1ccncc1", "note": "(configuration not stated)", "Potency": "active: 11.2 µM"}, {"smiles": "O=C(COc1ccc(F)cc1Br)NCC1(N2CCCCC2)CCCCC1", "Potency": "inconclusive [inhibitor, single point]"}, {"smiles": "S=c1[nH]nc(-c2ccco2)n1/N=C/C(Cl)=C/c1ccccc1", "Potency": "inconclusive [inhibitor, single point]"}, {"smiles": "CCCCN(CC)CCNC(=S)Nc1ccc2nc(N3CCN(C)CC3)cc(C)c2c1", "Potency": "inconclusive [inhibitor, single point]"}, {"smiles": "CN(C)c1ccnc(NCc2ccccc2)c1C#N", "Potency": "inactive"}, {"smiles": "O=C(Nc1ccccc1)c1nc[nH]c1C(=O)NCCCNC(=O)c1[nH]cnc1C(=O)Nc1ccccc1", "Potency": "inconclusive [inhibitor, single point]"}, {"smiles": "COc1ccc(NS(=O)(=O)c2cc(NC(=O)c3cccs3)ccc2N2CCCC2)cc1", "Potency": "inconclusive [inhibitor, single point]"}, {"smiles": "CC(C)n1ncc2c(C(=O)Nc3ccc(S(C)(=O)=O)cc3)cc(C3CC3)nc21", "Potency": "inconclusive [inhibitor, single point]"}, {"smiles": "COc1ccc(C(=O)C2CCN(C(=S)NCC3CCCO3)CC2)cc1", "note": "(configuration not stated)", "Potency": "inconclusive [inhibitor, single point]"}, {"smiles": "COc1ccc(/C=N/n2c(SC)nnc2-c2ccccc2)c(OC)c1OC", "Potency": "active: 3.26 µM"}, {"smiles": "Cn1cnc([N+](=O)[O-])c1Sc1ccc(Br)cc1", "Potency": "inconclusive [inhibitor, single point]"}, {"smiles": "CC(=O)c1ccc2ccccc2c1OC(=O)c1ccncc1", "Potency": "inconclusive [inhibitor, single point]"}, {"smiles": "NC(=O)c1cccc(S(=O)(=O)N2CC(c3ccccc3)CC2=O)c1", "note": "(configuration not stated)", "Potency": "inconclusive [inhibitor, single point]"}, {"smiles": "Cc1ccc(CNc2nc(-c3ccco3)nn2C(=O)c2ccccc2[N+](=O)[O-])cc1", "Potency": "inconclusive [inhibitor, single point]"}, {"smiles": "CC(=O)N1CCC[C@H]1C(=O)NCC1Cc2cc(Cl)cc(-c3ccc4[nH]ccc4c3)c2O1", "note": "(some centres not stated)", "activity change, negative = growth inhibition": "inactive: 23.4% [at 9.04 µM]"}, {"smiles": "COc1cccc(Cn2nnc(C(=O)NCc3ccccc3Cl)c2N)c1", "Potency": "inconclusive [inhibitor, single point]"}, {"smiles": "CCOC(=O)[C@]12CCC=C1N(Cc1ccccc1)C(=O)[C@H](CC(=O)NCc1ccc(OC)c(OC)c1)C2", "Potency": "inconclusive [inhibitor, single point]"}, {"smiles": "O=C(COC(=O)CCSc1ccccc1)Nc1ccccc1Br", "Potency": "inactive"}, {"smiles": "CCNC(=O)C1(C)CCCN(Cc2noc(-c3c(C)noc3C)n2)C1", "note": "(configuration not stated)", "Potency": "inactive"}, {"smiles": "COCc1c(C#N)c(NCCc2ccccc2)nc(C)c1[N+](=O)[O-]", "Potency": "inconclusive [inhibitor, single point]"}, {"smiles": "O=C(Cc1n[nH]c(=O)c2ccccc12)NCc1ccc(Cl)cc1", "activity change, negative = growth inhibition": "inconclusive: -37.4% [inhibitor]"}, {"smiles": "Cc1ccc(S(=O)(=O)N2CCCCC2c2cccnc2)c(C)c1C", "note": "(configuration not stated)", "Potency": "inconclusive [inhibitor, single point]"}, {"smiles": "O=c1[nH][nH]cc1C=Nc1cc(Cl)ccc1O", "Potency": "active: 20.6 µM"}, {"smiles": "O=C(Nc1nc2ccccc2[nH]1)c1ccc(F)c(S(=O)(=O)N2CCOCC2)c1", "Potency": "inconclusive [inhibitor, single point]"}, {"smiles": "Cc1ccccc1S(=O)(=O)NC(=O)C1(C)CCN1C(=O)c1cccc(F)c1", "note": "(configuration not stated)", "Potency": "inactive"}, {"smiles": "CCCCSc1nc2c(cnn2-c2ccc(C)c(C)c2)c(=O)[nH]1", "Potency": "inactive"}, {"smiles": "O=C(C1COc2ccccc2O1)N1CCOCC1", "note": "(configuration not stated)", "Potency": "inactive"}, {"smiles": "COc1ccc2cc3cc(C(=O)N4CCCCCC4)oc3nc2c1", "Potency": "inconclusive [inhibitor, single point]"}, {"smiles": "CC(C)n1c(NCc2ccc(Cl)cc2)nc2ccccc21", "activity change, negative = growth inhibition": "inconclusive: -30.1% [inhibitor]"}, {"smiles": "O=C(O)C1c2ccccc2Cc2ccccc21", "Potency": "inactive"}, {"smiles": "COc1ccc(C2CC(O)(c3ccccc3)Oc3cc(OC)cc(OC)c32)cc1", "note": "(configuration not stated)", "Potency": "active: 23.1 µM"}, {"smiles": "COc1ccc(N2CC(C(=O)NCCS(=O)(=O)N3CCN(c4ccccc4)CC3)CC2=O)cc1", "note": "(configuration not stated)", "Potency": "inactive"}]}]}
